Experimental data reported in PMC4336329 (PLoS ONE, 2015).
Hit rate of the full screen: of about 310,000 compounds, about 14,000 (4.5%) showed an effect of 50% or more. Effects have a minus sign here. The list shows a part of the results.

What follows are molecules tested against human ether-à-go-go-related gene (hERG) potassium channel (human, UniProt Q12809) (assay: primary screen, population patch clamp on CHO cells stably expressing hERG).
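Further: peak tail current of the secondary pulse compared with the same well before compound.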

human ether-à-go-go-related gene (hERG) potassium channel, sequence (Q12809 whole entry, looked up): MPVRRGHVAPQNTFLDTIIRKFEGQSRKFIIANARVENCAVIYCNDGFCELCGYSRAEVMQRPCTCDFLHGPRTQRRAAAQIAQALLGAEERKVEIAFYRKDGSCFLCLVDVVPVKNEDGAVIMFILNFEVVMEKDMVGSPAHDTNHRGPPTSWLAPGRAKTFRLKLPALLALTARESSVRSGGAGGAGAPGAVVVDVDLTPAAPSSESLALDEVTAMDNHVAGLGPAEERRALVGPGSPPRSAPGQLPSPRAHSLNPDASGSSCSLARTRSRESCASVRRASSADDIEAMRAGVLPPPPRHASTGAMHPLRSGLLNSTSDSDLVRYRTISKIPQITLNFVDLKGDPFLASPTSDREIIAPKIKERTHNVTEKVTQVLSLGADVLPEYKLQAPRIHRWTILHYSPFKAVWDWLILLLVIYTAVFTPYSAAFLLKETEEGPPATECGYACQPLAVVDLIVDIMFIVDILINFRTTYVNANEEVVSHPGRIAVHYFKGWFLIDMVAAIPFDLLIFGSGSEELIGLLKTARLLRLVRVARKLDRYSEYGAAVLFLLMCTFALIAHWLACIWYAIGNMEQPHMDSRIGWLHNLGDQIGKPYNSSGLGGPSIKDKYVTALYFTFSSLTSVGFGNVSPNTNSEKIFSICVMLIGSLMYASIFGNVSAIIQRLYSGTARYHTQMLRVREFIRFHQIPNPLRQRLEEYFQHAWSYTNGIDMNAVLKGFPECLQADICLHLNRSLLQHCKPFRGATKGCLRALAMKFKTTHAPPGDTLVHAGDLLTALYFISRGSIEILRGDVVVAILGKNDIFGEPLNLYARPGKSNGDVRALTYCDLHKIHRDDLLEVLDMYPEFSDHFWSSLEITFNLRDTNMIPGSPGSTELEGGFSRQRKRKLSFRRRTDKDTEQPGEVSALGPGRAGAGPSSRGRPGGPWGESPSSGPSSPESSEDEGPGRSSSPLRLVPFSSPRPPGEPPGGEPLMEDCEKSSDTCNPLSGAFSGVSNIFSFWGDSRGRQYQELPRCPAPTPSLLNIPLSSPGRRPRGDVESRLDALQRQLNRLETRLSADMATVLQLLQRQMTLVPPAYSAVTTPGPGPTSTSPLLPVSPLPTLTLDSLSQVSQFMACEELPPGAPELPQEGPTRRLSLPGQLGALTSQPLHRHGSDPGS

SMILES | hERG current change (%, negative = inhibition) at 10uM
O=C1N/C(=N\S(=O)(=O)Cc2ccccc2)S/C1=C/c1cccc([N+](=O)[O-])c1 | 23.2%
O=C(Cn1cc([N+](=O)[O-])ccc1=O)N1CCCc2ccccc21 | 4.68%
Cc1ccc2nc(/N=C(\N)NC(=O)NC3CCCCC3)nc(C)c2c1 | -76.4%
O=C(c1ccco1)N1CCCC(c2nc3c(nnn3Cc3ccc(Cl)cc3Cl)c(=O)[nH]2)C1 (stereo not shown) | -36.1%
COc1ccc(C2=NCCn3nc4cc(C(F)(F)F)ccc4c32)cc1 | -2.18%
COc1ccc(-n2c(-c3ccc(OC)c(OC)c3)n[nH]c2=S)cc1 | 7.04%
CC(C)N=c1scc(-c2ccco2)n1/N=C/c1ccc(O)c(O)c1 | -13.4%
O=C(CNC(=O)c1ccccc1F)c1ccccc1 | 14.5%
O=C(OCC(=O)N1CCCC1)c1ccc(S(=O)(=O)Nc2ccccc2)cc1 | 9.1%
O=C(CN(Cc1ccc(F)cc1)C(=O)Cn1nnc2ccccc21)NCC1CCCO1 (stereo not shown) | 0.991%
COc1cc(S(=O)(=O)N(Cc2ccccn2)Cc2ccccc2Cl)ccc1-n1cnnn1 | -3.64%
CC(=O)SCC(=O)N=c1sc2cc(F)ccc2n1C | -10.7%
Nc1nc(-c2ccc3c(c2)OCCO3)c(CC(=O)O)s1 | 18.4%
c1ccc(-c2cc3nccc(-c4ccccn4)n3n2)cc1 | -46.3%
COCCN1C(=O)C(=O)/C(=C(/O)c2ccc(S(=O)(=O)N3CCCCC3)cc2)C1c1ccc(OC)c(OC)c1 (stereo not shown) | 8.21%
COc1ccc2nc(NC(=O)Nc3ccccc3)sc2c1 | 0.904%
CN(C)c1ccc(C(=O)N2CCNC(=O)C2CC(=O)Nc2ccc(F)cc2)cc1 (stereo not shown) | 17.1%
NC(=S)Nc1ncc(C(F)(F)F)cc1Cl | 12.2%
CCOC(=O)Cn1cc(C#N)c2cccc(CC)c21 | 1.42%
CCN1CCN(c2nc(Nc3ccccc3F)nc(N)c2[N+](=O)[O-])CC1 | -56.6%
CCCN(CCC)CC(O)CN(c1cc([N+](=O)[O-])ccc1OC)S(=O)(=O)c1ccccc1.Cl (stereo not shown) | -60.4%
O=C(NC(=S)NCCCN1CCOCC1)c1ccc([N+](=O)[O-])cc1 | -33.4%

SMILES | hERG current change (%, negative = inhibition) at 10uM
CCOC(=O)N1CCC(NC(=O)c2oc3c(c2C)-c2[nH]ncc2CC3)CC1 | 18.5%
CCOC(=O)c1ccc(NC(=S)N(CCCN2CCN(C)CC2)Cc2cccs2)cc1 | -65.4%
CC(NC(=O)[C@@H](NC(=O)[C@@H]1Cc2ccccc2CN1)C(C)C)c1ccccc1 (stereo partly shown) | -1.36%
O=C(NCc1cccc(Cl)c1)C1CCN(c2nnc(N3CCCC3=O)s2)CC1 | -10.7%
Cc1ccc(C(=O)NCCN2C3=NC[C@@H](Cc4ccccc4)N3C[C@H]2Cc2ccc(O)cc2)cc1Br | -71.1%
COc1ccc(C2SCC(=O)N2c2ccccc2)cc1 (stereo not shown) | 8.97%
Cc1cccc(NC(=O)CSc2ncnc3sc(C)c(C)c23)n1 | -3.86%
Cc1ccc(CNC(=O)CS(=O)Cc2nc(-c3ccccc3F)oc2C)cc1 (stereo not shown) | -12.7%
CCN1CCN(c2cc(C)c3cc(NC(=S)NCc4cccs4)ccc3n2)CC1 | -59.7%
O=C(CNCc1ccccc1Cl)Nc1ccc2c(c1)OCCO2.O=C(O)C(=O)O | -19.1%
Cc1cc(C)n(C(=O)/C=C/c2cccs2)n1 | 13.1%
Cc1ccc(S(=O)(=O)N2CCC(=O)N(C(COCc3cccc(C)c3)Cc3ccccc3)CC2)cc1 (stereo not shown) | -29.1%
CC(=O)Nc1ccc(CN2CCc3c([nH]c4ccccc34)C2C(C)(C)C)cc1 (stereo not shown) | 4.92%
CN(C)CCn1c(=S)[nH]c2ccc(Cl)cc2c1=O | -21.7%
COc1cccc(NC(=S)NN=C2CCC(C(C)(C)C)CC2)c1 (stereo not shown) | 13.7%
CC(C)(C)n1nnnc1C(c1cccs1)N1CCN(Cc2ccc3c(c2)OCO3)CC1 (stereo not shown) | -19.4%
Cc1c(C)n(Cc2ccccc2)c2ncnc(NN)c12 | -10.2%
CCOc1ccccc1NS(=O)(=O)c1cccs1 | -2.15%
Cc1nnc(SCCn2c(N3CCCC(C)C3)nc3c2c(=O)[nH]c(=O)n3C)s1 (stereo not shown) | 2.42%
FC(F)(F)c1nnc2ccc(Sc3ccccn3)nn12 | 17.1%
COc1ccc(NC(=O)CN(C)C(=O)c2cccc(S(=O)(=O)N3CCCc4ccccc43)c2)cc1 | -39.3%
